According to PMC13083723 (Patterns, 2026):
Out of some 5,400 compounds screened, about 190 (3.5%) showed an effect of 50% or more. The list shows a part of the results. Residues, ends and D or L forms follow the SMILES beside them.

System: Vero-E6
Assay: primary screen, phospholipidosis by LipidTOX staining; higher = more effect of the substance
Details: 10 µM
In short: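 Single-concentration screen at 10 μM, with DMSO 0.1 v/v % and amiodarone 10 μM as controls. Read-out is LipidTOX Red phospholipid staining, which tolerates aldehyde fixation, in Vero-E6 cells.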

**Q.** Which result_ITMP does the source give for `O=C(Nc1ccc([N+](=O)[O-])cc1Cl)c1cc(Cl)ccc1O` here?
**A.** -4.22%

**Q.** Which result_ITMP does the source give for `CCOc1ccc(Cc2nccc3cc(OCC)c(OCC)cc23)cc1OCC` here?
**A.** 0.61%

**Q.** `NC(=O)c1cc(N2CC2)c([N+](=O)[O-])cc1[N+](=O)[O-]` was tested. Which result_ITMP did it give?
**A.** 2.87%

**Q.** `Cn1cc(C2=C(c3cn(C4CCN(Cc5ccccn5)CC4)c4ccccc34)C(=O)NC2=O)c2ccccc21` was tested. Which result_ITMP did it give?
**A.** -1.87%

**Q.** How did the result_ITMP turn out when `Cc1cc(C)nc(NS(=O)(=O)c2ccc(NC(=S)NC(=O)COc3ccc(Br)cc3Cl)cc2)n1` was run?
**A.** -1.97%

**Q.** How did the result_ITMP turn out when `CN1C(C(=O)Nc2ccccn2)=C(O)c2sc(Cl)cc2S1(=O)=O` was run?
**A.** -1.16%

**Q.** For `CC12CC3CC(C)(C1)CC(N)(C3)C2`, which result_ITMP is on record?
**A.** 13.1%

**Q.** How did the result_ITMP turn out when `N#Cc1ncccn1` was run?
**A.** -5.87%

**Q.** How did the result_ITMP turn out when `Cc1ccc(CNc2ncnc3ccc(-c4ccc(CO)o4)cc23)o1` was run?
**A.** -5.86%

**Q.** Which result_ITMP does the source give for `Cc1[nH]c(/C=C2\C(=O)Nc3ccc(F)cc32)c(C)c1C(=O)NCCN1CCCC1` here?
**A.** 11.1%

**Q.** `NC[C@H]1O[C@H](OC2[C@@H](N)C[C@@H](N)[C@H](O[C@H]3O[C@H](CO)[C@@H](O)[C@H](N)[C@H]3O)[C@H]2O)[C@H](O)[C@@H](O)[C@@H]1O` (some centres unmarked) was tested. Which result_ITMP did it give?
**A.** -2.05%

**Q.** `Cn1nnnc1SCC1=C(C(=O)[O-])N2C(=O)[C@@H](NC(=O)[C@H](O)c3ccccc3)[C@H]2SC1` was tested. Which result_ITMP did it give?
**A.** -1.4%

**Q.** How did the result_ITMP turn out when `O=C(c1cc(C2CC2)on1)N(C1CCCCC1)C1CCCCC1` was run?
**A.** 0.99%

**Q.** `COc1ccc(-c2cc(=O)c3c(OC)c(OC)c(OC)c(OC)c3o2)cc1` was tested. Which result_ITMP did it give?
**A.** -5.65%

**Q.** How did the result_ITMP turn out when `CCS(=O)(=O)N1CCN(c2ccc(Nc3ncc(C(N)=O)c(NC4CC4)n3)cc2)CC1` was run?
**A.** 1.28%

**Q.** Which result_ITMP does the source give for `CCN1CCN(c2ccc(C(C)(C)NC(=O)c3cc4[nH]c5ccccc5c(=O)c4cc3F)cn2)CC1` here?
**A.** 7.92%

**Q.** How did the result_ITMP turn out when `CC(C)C(=O)c1c(C(C)C)nn2ccccc12` was run?
**A.** -2.04%

**Q.** For `Nc1nc2c(sc(=O)n2[C@@H]2O[C@H](CO)[C@@H](O)[C@H]2O)c(=O)[nH]1`, which result_ITMP is on record?
**A.** -8.78%

**Q.** Which result_ITMP does the source give for `CC(C)NCC(O)COc1cccc2[nH]ccc12` (centres unmarked) here?
**A.** -1.97%

**Q.** With `Cn1c(=O)c2c(ncn2CCOC(=O)C(C)(C)Oc2ccc(Cl)cc2)n(C)c1=O` as the compound, how does the result_ITMP read?
**A.** -1.74%

**Q.** `COP(=O)(OC)OC(c1ccc(Cl)cc1)P(=O)(OC)OC` (centres unmarked) was tested. Which result_ITMP did it give?
**A.** 1.09%

**Q.** How did the result_ITMP turn out when `CC(CN(C)C)CN1c2ccccc2CCc2ccccc21` (centres unmarked) was run?
**A.** 34.6%

**Q.** How did the result_ITMP turn out when `CCCC(O)C(CC)CO` (centres unmarked) was run?
**A.** -4.8%

**Q.** For `Cn1c(N2CCCCS2(=O)=O)nc(C(=O)NCc2ccc(F)cc2)c(O)c1=O`, which result_ITMP is on record?
**A.** -1.64%

**Q.** `O=C([O-])CCCCCCCCC(=O)[O-]` was tested. Which result_ITMP did it give?
**A.** -5.98%

**Q.** `O=C(/C=C/c1ccc(O)c2c1[C@@H](C(=O)O[C@H](Cc1ccc(O)c(O)c1)C(=O)O)[C@H](c1ccc(O)c(O)c1)O2)O[C@H](Cc1ccc(O)c(O)c1)C(=O)O` was tested. Which result_ITMP did it give?
**A.** -2.38%

**Q.** `FC(F)(F)c1ccccc1-c1cc(C(F)(F)F)c2[nH]c(C3=NOC4(CCCCC4)C3)nc2c1` was tested. Which result_ITMP did it give?
**A.** -4.27%

**Q.** For `CC(C)CC(NC(=O)C1CCCN1)C(=O)NCC(N)=O` (stereo not drawn) (H-Pro-Leu-Gly-NH2; configuration not given here), which result_ITMP is on record?
**A.** -9.44%

**Q.** With `Cc1ccc(C)c(C(O)CNC(C)C)c1` (centres unmarked) as the compound, how does the result_ITMP read?
**A.** 8.37%

**Q.** `C(#CCN1CCCC1)CN1CCCC1` was tested. Which result_ITMP did it give?
**A.** 7.18%

**Q.** For `CCCCOc1ccc(C(=O)CCN2CCCCC2)cc1`, which result_ITMP is on record?
**A.** 4.72%

**Q.** With `O=C(O)COc1ccc(C(=O)c2cccs2)c(Cl)c1Cl` as the compound, how does the result_ITMP read?
**A.** -7.59%

**Q.** Which result_ITMP does the source give for `CC1(C)[C@@H]2C[C@@H](O)[C@@](C)(O)[C@H]1C2` here?
**A.** -10.7%

**Q.** How did the result_ITMP turn out when `COc1ccc(-c2cc3nccn3c(Nc3ncccc3C(N)=O)n2)cc1OC` was run?
**A.** 2.2%

**Q.** Which result_ITMP does the source give for `COc1ccc(CCC(=O)Nc2nc3ccc(Cl)cc3s2)cc1OC` here?
**A.** -5.48%

**Q.** `CC[C@@H](C(=O)[C@@H](C)[C@@H](O)[C@H](C)[C@@H]1O[C@@H]([C@@H](CC)C(=O)O)CC[C@@H]1C)[C@H]1O[C@]2(C=C[C@@H](O)[C@]3(CC[C@@](C)([C@H]4CC[C@](O)(CC)[C@H](C)O4)O3)O2)[C@H](C)C[C@@H]1C` was tested. Which result_ITMP did it give?
**A.** 13%

**Q.** Which result_ITMP does the source give for `O=[N+]([O-])c1cn2c(n1)OC[C@@H](OCc1ccc(OC(F)(F)F)cc1)C2` here?
**A.** -1.6%

**Q.** Which result_ITMP does the source give for `CCOC(=O)C(C)Oc1cccc2c(=O)n(CC(=O)Nc3ccc4c(c3)OCCO4)ccc12` (centres unmarked) here?
**A.** 3.61%

**Q.** How did the result_ITMP turn out when `Cn1nnc2c(C(N)=O)ncn2c1=O` was run?
**A.** 2.92%

**Q.** For `COc1ccc(CCC(=O)c2c(O)cc(O[C@@H]3O[C@H](CO)[C@@H](O)[C@H](O)[C@H]3O[C@@H]3O[C@@H](C)[C@H](O)[C@@H](O)[C@H]3O)cc2O)cc1O`, which result_ITMP is on record?
**A.** 1.22%

**Q.** With `COc1ccccc1OC(=O)C(C)c1ccc(CC(C)C)cc1` (centres unmarked) as the compound, how does the result_ITMP read?
**A.** -2.36%

**Q.** With `NCCCCCc1cnc[nH]1` as the compound, how does the result_ITMP read?
**A.** -0.34%

**Q.** Which result_ITMP does the source give for `Cc1ccc(C(=O)Cn2c3c(sc2=N)CCCC3)cc1` here?
**A.** -0.53%

**Q.** How did the result_ITMP turn out when `CC(C)(C)NC(=O)[C@H]1CC[C@H]2[C@@H]3CC[C@H]4NC(=O)C=C[C@]4(C)[C@H]3CC[C@]12C` was run?
**A.** -3.73%

**Q.** For `C=CC[N+]1([C@H]2C[C@H]3[C@@H]4CC[C@H]5C[C@H](O)[C@@H](N6CCOCC6)C[C@]5(C)[C@H]4CC[C@]3(C)[C@H]2OC(C)=O)CCCC1`, which result_ITMP is on record?
**A.** -4.38%

**Q.** With `Cc1ccc(C(=O)N(CCCN)[C@@H](c2oc3cc(Cl)ccc3c(=O)c2Cc2ccccc2)C(C)C)cc1` as the compound, how does the result_ITMP read?
**A.** 92.7%

**Q.** `Cc1cccc(C)c1NC(=O)CN1CCCC1=O` was tested. Which result_ITMP did it give?
**A.** 1.22%

**Q.** For `CS(=O)(=O)Nc1ccc(Cc2noc(-c3ccc4[nH]cc(CCN)c4c3)n2)cc1`, which result_ITMP is on record?
**A.** -4.97%

**Q.** How did the result_ITMP turn out when `C[C@]12C=CC(=O)C=C1CCC1C2[C@@H](O)C[C@@]2(C)C1CC[C@]2(O)C(=O)COP(=O)([O-])[O-]` (some centres unmarked) was run?
**A.** -4.14%

**Q.** For `NC[C@H]1O[C@H](O[C@H]2C(O[C@@H]3O[C@H](CO)[C@@H](O)[C@H]3O)[C@@H](O)[C@H](N)C[C@@H]2N)[C@H](N)[C@@H](O)[C@@H]1O` (some centres unmarked), which result_ITMP is on record?
**A.** -6.92%

**Q.** `OC(Cc1ccncc1)C(Cl)(Cl)Cl` (centres unmarked) was tested. Which result_ITMP did it give?
**A.** 2.48%

**Q.** Which result_ITMP does the source give for `Nc1nc(N)c2nc(-c3ccccc3)c(N)nc2n1` here?
**A.** -1.84%

**Q.** How did the result_ITMP turn out when `CCCNC(=O)N1N=C(c2ccc(N)cc2)c2cc3c(cc2C1C)OCO3` (centres unmarked) was run?
**A.** -1.71%
